Laboratory results taken from the RNAGym collection of RNA variant scans (doi:10.1073/pnas.2313332121).
Variants at the background level are over-represented here.

B1: TPR 5TU (parent)
chain: GGAUCUUCUCGAUCUAACAAAAAAGACAAAUCUGCCACAAAGCUUGAGAGCAUCUUCGGAUGCAGAGGCGGCAGCCUUCGGUGGCGCGAUAGCGCCAACGUUCUCAACUAUGACACGCAAAACGCGUGCUCCGUUGAAUGGAGUUUAUCAUG

Variants of: B1
Experiment: polymerase ribozyme fitness, log enrichment relative to wild type (log ratio); higher = more active; in vitro selection for triplet polymerase activity
In short: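 Libraries of mutants in each subunit of a heterodimeric triplet polymerase ribozyme were generated by PCR and transcribed. In triplicate, each went through one in vitro selection round: annealing with biotinylated primer, partner subunit and triplets; frozen incubation at −7 °C; gel excision of extended constructs; streptavidin-bead capture; RT-PCR. Fitness, taken from Illumina sequencing of input and output libraries, is the logarithm of a genotype's enrichment over wild-type enrichment, averaged across replicates with inverse-variance weights. The logarithm is base 2, and genotypes needed ≥10 input reads and ≥1 read per output to be kept.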

Row | Variant | polymerase ribozyme fitness (log ratio)
1 | U44A U55A C85A A113C | ≤ -4.2
2 | U44A U55A U56G C63G C93G A115U | ≤ -4.2
3 | U44A U56A U61A A97U | ≤ -4.2
4 | U44A U78G C85G G100U C103A | ≤ -4.2
5 | U44A U90G C93U G143A U151G | ≤ -4.2
6 | U44A U109G | ≤ -4.2
7 | U44A U144G U151G | ≤ -4.2
8 | U44C A91C C105A A115G | ≤ -4.2
9 | U44C C76U C87A C114U C118G A142U | ≤ -4.2
10 | U44C G50A C95G A107G U135C | ≤ -4.2
11 | U44C G58C U82A U111A | ≤ -4.2
12 | U44C G88A U135A U139G | ≤ -4.2
13 | U44C U55A G59A G83A C87U U145A | ≤ -4.2
14 | U44C U55G U56A C63G G65A A66G G88U U135A | ≤ -4.2
15 | U44C U135G U148G | ≤ -4.2
16 | U44G A49C C93U C125U A150U | ≤ -4.2
17 | U44G A49C G62C U148A | ≤ -4.2
18 | U44G A52C A64U A66C G117A | ≤ -4.2
19 | U44G A52C G71C U77G U78G | ≤ -4.2
20 | U44G A52G A91U U148C | ≤ -4.2
21 | U44G A66C G81A C85U U148G | ≤ -4.2

Row | Variant | polymerase ribozyme fitness (log ratio)
22 | U44G A73U C85A C99U A142C | ≤ -4.2
23 | U44G C51U A73G G86A A89C C96U A106G | ≤ -4.2
24 | U44G C75G C103A U148A | ≤ -4.2
25 | U44G C79A C87G | ≤ -4.2
26 | U44G C85A A120U U145C | ≤ -4.2
27 | U44G C96A G136A U145G | ≤ -4.2
28 | U44G G46A G92A A122U A147G | ≤ -4.2
29 | U44G G48A A73U G86U C99A C108G A110U U130G | ≤ -4.2
30 | U44G G50A U55G U101G G126U U134A | ≤ -4.2
31 | U44G G50C C99U U135C G152C | ≤ -4.2
32 | U44G G50C C125A U127G A142U | ≤ -4.2
33 | U44G G50C G92A | ≤ -4.2
34 | U44G G65A G84A | ≤ -4.2
35 | U44G G68C U90G A142U | ≤ -4.2
36 | U44G G70C G140U | ≤ -4.2
37 | U44G G81A C87A G124C | ≤ -4.2
38 | U44G G81C A89U A119U | ≤ -4.2
39 | U44G G81C C96U C108G | ≤ -4.2
40 | U44G G84U C114G C118A U134G | ≤ -4.2
41 | U44G G88A A106G G117C G141C U144A | ≤ -4.2
42 | U44G G88U G128U G133A A150U | ≤ -4.2

Row | Variant | polymerase ribozyme fitness (log ratio)
43 | U44G G141A | -4.12
44 | U44G U53A C87G A110G G141U | ≤ -4.2
45 | U44G U53A G94C C108A | ≤ -4.2
46 | U44G U53G C87U U135A | ≤ -4.2
47 | U44G U55A G67C C79G C99A A113U A121U | ≤ -4.2
48 | U44G U55A U90G G100U G128A | ≤ -4.2
49 | U44G U56A G84U C129A | ≤ -4.2
50 | U44G U61A C69U U102G C116G A121C | ≤ -4.2
51 | U44G U61A G141C | ≤ -4.2
52 | U44G U61G | ≤ -4.2
53 | U44G U101G U146C A150U | ≤ -4.2
54 | U44G U139A | ≤ -4.2
55 | U44G U148C | ≤ -4.2
56 | U45A A47C G48A G84C A98G A107G C116A G133U A142C | ≤ -4.2
57 | U45A A47C G141U | ≤ -4.2
58 | U45A A47C U56A A115U G140C | ≤ -4.2
59 | U45A A47G G50A A64G G136U | ≤ -4.2
60 | U45A A47U U77G C114G A122U | ≤ -4.2
61 | U45A A49C U61A G65A G88C | ≤ -4.2
62 | U45A A49G G83A C85U C99G U104C | ≤ -4.2
63 | U45A A52C G65U C69U C85U U109A A121G U145G | ≤ -4.2

Row | Variant | polymerase ribozyme fitness (log ratio)
64 | U45A A52G A66C C85G C132A | ≤ -4.2
65 | U45A A52G C118A | -4.18
66 | U45A A52G U56G C57G G94C U102G | ≤ -4.2
67 | U45A A60G | -2.47
68 | U45A A60U U77G C79U C99G U148G | ≤ -4.2
69 | U45A A64U G67C G74A G83A A120G | ≤ -4.2
70 | U45A A73C G141C G143C | ≤ -4.2
71 | U45A A73U G80C C95U C123U C129U | ≤ -4.2
72 | U45A A107U A120G | ≤ -4.2
73 | U45A C51U G92U C114U A142C | ≤ -4.2
74 | U45A C57A C95U | -2.12
75 | U45A C57U C93G C131G G133C | ≤ -4.2
76 | U45A C75U U77A G94A C95U A97U U146A G152U | ≤ -4.2
77 | U45A C76U C93U U104A A119G A147U | ≤ -4.2
78 | U45A C79A | ≤ -4.2
79 | U45A C85A C118U C129A A137C | ≤ -4.2
80 | U45A C93A G141A | -4.05
81 | U45A C93U | -3.15
82 | U45A C96U G140A | ≤ -4.2
83 | U45A C99G A122U U135C | ≤ -4.2
84 | U45A C103G | ≤ -4.2
